Measurements from PubChem BioAssay AID445 (National Center for Advancing Translational Sciences (NCATS), 2006).
Among all 110,000 compounds or so, about 40 (0.04%) were called active. The shares of active, inactive and inconclusive entries below differ from those in the screen. The call rests on the fitted dose curve; in most records, active means well fitted curve in the direction sought with a large enough effect in the signal ratio (not every such curve was filed as active); inconclusive means small, poorly fitted or top-dose-only effect, or a change in a side signal; inactive means flat fitted curve, though single readings scatter; the % refers to the signal ratio. Potencies of inconclusive entries are doubtful fits and often do not repeat.

Assay: IkB Signaling;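 on IkBa stabilization activation: 0% = basal untreated cells and 100% = reference inhibitor full response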
Conditions: ABC-DLBCL IkBa-CBG/CBR dual luciferase ratio (green luciferase fused to IkBa over red control in OCI-Ly3 lymphoma cells), 4 h; IkBa stabilization activation: at 57.1 µM (top of the series), scaled: untreated 0%, proteasome inhibitor 100% unless noted
Outline: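 Luminescence ratio of IκBα-fused green versus native red beetle luciferase in OCI-Ly3 cells, 4 h post-doxycycline with compound; red signal alone, scaled from basal (0%) to zero light (-100%), flagged nonspecific or cytotoxic effects.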
Potency means the concentration at half of the fitted maximal effect.

Row | SMILES | IkBa stabilization activation | Potency
1 | CCOCCCn1c(=N)c(C(=O)NC(C)c2ccccc2)cc2c(=O)n3cccc(C)c3nc21 (stereo not drawn) | inconclusive: 2.39% [signal inhibitor] | –
2 | Fc1cccc(-c2nnn3c2nc(NCc2ccc4c(c2)OCO4)c2ccccc23)c1 | – | inconclusive: 3.16 µM [signal inhibitor]
3 | Cc1sc2nc(CSc3nc4ccccc4c(=O)n3CCCN3CCOCC3)[nH]c(=O)c2c1C | inactive: -0.637% | –
4 | Cc1ccc(-c2nn(C)c(=O)c3ccccc23)cc1S(=O)(=O)NCCCN(C)C | inactive: 3.83% | –
5 | COC(=O)c1ccc(-c2nc(-c3ccc(OC)c(OC)c3)no2)cc1 | inconclusive: 4.94% [signal inhibitor] | –
6 | CCn1c(N2CCN(C(=O)C34CC5CC(CC(C5)C3)C4)CC2)nc2ccccc21 | inactive: 0.359% | –
7 | O=C(c1ccc2c(c1)N(Cc1ccc(Cl)cc1)C(=O)c1ccccc1S2(=O)=O)N1CCN(Cc2ccccc2)CC1 | inconclusive: 0.423% [signal inhibitor] | –
8 | Cc1cc(C)cc(NC(=O)CCc2c(C)nc3c(c2C)c(=O)n(C)c(=O)n3C)c1 | inconclusive: 1.37% [signal inhibitor] | –
9 | Cc1ccc(CCNC(=O)CCn2nc(-c3ccc(Cl)cc3)ccc2=O)cc1 | inconclusive: 2.24% [signal inhibitor] | –
10 | Cc1cc(C)c2c(n1)nn1c(N3CCN(c4ccccn4)CC3)cc(C)nc21 | inactive: -0.183% | –
11 | O=S(=O)(c1ccc(Br)cc1)c1nnn2c1nc(NCCc1ccccc1)c1sccc12 | inconclusive: 0.178% [signal inhibitor] | –
12 | Cc1nc2ccc(S(=O)(=O)NC(C(=O)N3CCN(c4cccc(Cl)c4)CC3)C(C)C)cc2s1 (stereo not drawn) | inconclusive: 0.159% [signal inhibitor] | –
13 | Cc1ccc(-c2onc(C)c2C)cc1S(=O)(=O)Nc1cccc(Cl)c1C | inconclusive: 14.3% [signal inhibitor] | –
14 | COc1ccc(N2C(=O)CCSC23C(=O)N(Cc2ccc(F)cc2)c2ccccc23)cc1 (stereo not drawn) | inconclusive: -2.42% [signal inhibitor] | –
15 | O=C(/C=C\Nc1ccc2c(c1)OCO2)c1ccccn1 | – | inconclusive: 12.6 µM [signal inhibitor, partial curve]
16 | CC(=O)c1ccc(C(=O)N(Cc2cccnc2)c2nc3c(C)c(C)ccc3s2)cc1 | inconclusive: -0.996% [signal inhibitor] | –
17 | CCOC(=O)N1CCN(C(=O)c2ccc3c(c2)N(Cc2cccc(Cl)c2)C(=O)c2ccccc2S3=O)CC1 (stereo not drawn) | inconclusive: -0.68% [signal inhibitor] | –
18 | CN(C)S(=O)(=O)N1CCN(CC(O)COc2ccc3cc(Br)ccc3c2)CC1 (stereo not drawn) | inconclusive: 11.4% [signal inhibitor] | –
